Data on one molecule can be found in patent publication US20090075291A1 (RESEARCH FOUNDATION OF STATE UNIVERSITY OF NEW YORK, published 2009).

This assay concerns the target T1, Cx43 from rat heart lysate (rat, UniProt P08050 2-382).
T1 construct: Native protein pulled down from a tissue lysate; also called cardiac Cx43
Briefly: GST pulldown from rat heart lysate on glutathione beads, western blot with anti-Cx43 antibody. The text has this:
FIG. 11 is a western blot for Cx43. Glutathione beads fused to NL.RXPE (“GST-NL.RXPE”) or RXPE (“GST-RXPE”), and glutathione beads alone (“GST”), with (“+”) or without (“−”) exposure to heart lysate, were run on SDS-PAGE, transferred to a nitrocellulose membrane, and probed with an antibody for Cx43. Cx43 was not recovered when GST alone was used as bait.
cDNA coding for […] (SEQ ID NO:11) (“NL.RXPE”) was cloned in-frame with the cDNA for glutathione S-transferase (“GST”). The resulting fusion protein, GST-NL.RXPE was produced in bacteria, and purified by conventional methods. GST-NL.RXPE was bound to glutathione beads and exposed to a rat heart lysate. After washing of the supernatant, the pellets were heated to separate the proteins from the beads. Two additional proteins were produced in parallel, and used as control: GST alone (not fused to any peptide) and GST fused to RXPE. After exposure to heart lysate, the resulting complexes that were “fished out” by the bait proteins were run on SDS-PAGE, transferred to a nitrocellulose membrane, and probed with an antibody for Cx43. […] It is expected that other peptides of formula A-Aₙ interact with Cx43, and may be used in the methods of the present invention.
For orientation: A western blot detects proteins with antibodies after separation by electrophoresis.

T1 sequence (P08050 2-382 limits assumed): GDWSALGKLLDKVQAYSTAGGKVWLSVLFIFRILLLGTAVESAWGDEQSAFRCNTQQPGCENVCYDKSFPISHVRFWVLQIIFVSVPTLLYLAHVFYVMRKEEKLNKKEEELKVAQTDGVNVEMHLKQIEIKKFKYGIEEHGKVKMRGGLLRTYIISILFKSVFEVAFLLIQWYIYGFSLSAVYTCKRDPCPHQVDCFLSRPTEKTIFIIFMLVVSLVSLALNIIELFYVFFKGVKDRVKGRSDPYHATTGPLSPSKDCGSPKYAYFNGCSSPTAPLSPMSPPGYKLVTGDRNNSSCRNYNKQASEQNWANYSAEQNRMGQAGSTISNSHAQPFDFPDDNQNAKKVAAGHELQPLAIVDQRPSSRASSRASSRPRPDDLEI

B1: GST alone (not fused to any peptide) (other)
chain: not shown
notes: Control bait on glutathione beads
On to B1, for which the binding result is “no binding”.
